From PubChem BioAssay AID1745853 (National Center for Advancing Translational Sciences (NCATS), 2022)
Where “and” joins values, the source holds several entries; their conditions need not be identical. Equal entries are not always repeated. The list shows a part of the results. Further columns of the screen follow, without active or inactive calls.

Key:
Test in all cases: Primary Screen for Target Class Profiling of Small Molecule Inhibitors of Methyltransferases
[1] = molecular target: Glycine N-methyltransferase (Homo sapiens) (UniProt Q14749); settings: purified enzyme, MTase-Glo SAH luminescence; measured here: GNMT inhibition; at 40 µM; stronger effect = lower value
How it was run: (§1)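 Each enzyme was assayed with SAM and its substrate. SAH formation detected by MTase-Glo luminescence; single-point 40 uM screen[…].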

[2] = molecular target: Guanidinoacetate N-methyltransferase (Homo sapiens) (UniProt Q14353); settings: purified enzyme, MTase-Glo SAH luminescence; measured here: GAMT inhibition; at 40 µM; stronger effect = lower value
How it was run: as §1

[3] = molecular target: Histamine N-methyltransferase (Homo sapiens) (UniProt P50135); settings: purified enzyme, MTase-Glo SAH luminescence; measured here: HNMT inhibition; at 40 µM; stronger effect = lower value
How it was run: as §1

[4] = molecular target: Nicotinamide N-methyltransferase (Homo sapiens) (UniProt P40261); settings: purified enzyme, MTase-Glo SAH luminescence; measured here: NNMT inhibition; at 40 µM; stronger effect = lower value
How it was run: as §1

[5] = molecular target: Phenylethanolamine N-methyltransferase (Homo sapiens) (UniProt P11086); settings: purified enzyme, MTase-Glo SAH luminescence; measured here: PNMT inhibition; at 40 µM; stronger effect = lower value
How it was run: as §1
% is scaled to controls: 0 for no effect and ±100 for the full control effect.

Structure (SMILES)	activity change, negative = inhibition [1]	activity change, negative = inhibition [2]	activity change, negative = inhibition [3]	activity change, negative = inhibition [4]	activity change, negative = inhibition [5]
COCCCN1C(=O)c2cc(-c3ccccc3)nn2CC1(C)C(=O)NCc1ccccc1 (stereo not given)	5.54%	1.38%	4.72%	7.12%	0.24%
COc1ccc(-c2cc3n(n2)CC(C)(C(=O)NCc2ccccc2OC)N(c2cccc(C)c2C)C3=O)cc1 (stereo not given)	3.08%	4.29%	-0.072%	-0.182%	-0.934%
COc1ccc(-c2cc3n(n2)CC(C)(C(=O)NC2CCCCC2)N(CCc2ccccc2)C3=O)cc1 (stereo not given)	-3.82%	0.433%	-8.18%	-4.53%	-8.14%
Cc1c[nH]c2nccc(Oc3c(F)cc(Nc4cc(Cl)nc(N)n4)cc3F)c12	-22.9%	-9.08%	-70.1%	-49%	-9.23%
CC1CCC(NC(=O)C2(C)Cc3ccccc3C(=O)N2CCc2ccc(Cl)cc2)CC1 (stereo not given)	-4.98%	5.03%	4.25%	-2.4%	2.74%
CCCCCC[C@@H]([C@@H](C)O)n1cnc2c(N)ncnc21	3.55%	11.3%	7.59%	-6.06%	5.72%
COc1cccc(Cn2nc3n(Cc4ccc(F)cc4)c(=O)c4ccccc4n3c2=O)c1	4.99%	0%	9.83%	-0.473%	5.25%
CCCn1c(=O)c2ccccc2n2c(SCC(=O)Nc3cc(F)ccc3F)nnc12	0.681%	0.031%	5.6%	-1.38%	1.99%
Fc1ccc2c(c1)c1c3n2CCNC3CCC1 (stereo not given)	0.53%	5.5%	2.52%	11.1%	-1.75%
CCCC1c2ccc(C)n2CCN1C(=O)Nc1ccc(F)cc1F (stereo not given)	-15.8%	-2.29%	-3.77%	0.113%	-10.7%
Cc1ccc2n1CCN(C(=O)Nc1ccccc1F)C2C(C)C (stereo not given)	-0.897%	1.53%	-7.73%	-12.9%	-5.47%
Cc1ccc(CNC(=O)C2(C)Cn3nc(C(=O)NC4CCCC4)cc3C(=O)N2C)cc1 (stereo not given)	2.76%	0%	-0.577%	7.94%	3.23%
Cc1ccc(CN2CCC(CNC(=O)NC(C)C)C2)cc1C (stereo not given)	-1.54%	1.99%	-0.39%	-0.953%	-0.43%
N#Cc1ccc(CN2C[C@@H](CO)[C@H](NC(=O)c3ccccc3)C2)cc1	-0.235%	-1.4%	-0.013%	1.48%	-4.71%
CCCCCCCCc1ccc(-c2ccc(C(=O)O)cc2)cc1	2.41%	12.5%	3.57%	-7.13%	9.77%
O=S(=O)(NCC1CN(CC2CC2)CC12CCCCC2)c1cccs1 (stereo not given)	-6.12%	-2.53%	-18%	-10.2%	-4.92%

Structure (SMILES)	activity change, negative = inhibition [1]	activity change, negative = inhibition [2]	activity change, negative = inhibition [3]	activity change, negative = inhibition [4]	activity change, negative = inhibition [5]
OC[C@H]1O[C@@H](n2cnc3c(NCc4ccc(O)cc4)ncnc32)[C@H](O)[C@@H]1O	9.57%	16%	4.99%	-0.16%	2.82%
CC(C)NC(=O)CCn1ccc2cc(S(=O)(=O)N3CCCCC3)ccc21	3.18%	0%	2.58%	7.88%	3.94%
CCOc1ccc(CNC(=O)CCCn2ccc3cc(S(=O)(=O)N4CCCC4)ccc32)cc1	4.09%	0.303%	3.85%	3.53%	3.23%
CC(C)NC(=O)c1ccc2c(=O)n(Cc3ccccc3)c3nn(Cc4ccccc4Cl)c(=O)n3c2c1	4.05%	0.073%	0.238%	2.75%	2.1%
C=C(C)Cn1c(SCC(=O)c2cccs2)nc2sc3c(c2c1=O)CCCC3	-5.97%	-13.1%	5.74%	-32.3%	-4.91%
CN(CCN1C(=O)c2cc3sccc3n2CC1(C)C(=O)NC1CCCCC1)C1CCCCC1 (stereo not given)	5.83%	1.5%	5.48%	11.2%	2%
CCCn1c(=O)c2ccc(C(=O)NC3CCCC3)cc2n2c(=O)n(Cc3ccccc3C)nc12	2.77%	1.11%	14.4%	-2.72%	-5.87%
C[N+](C)(C)CCCCCC[N+](C)(C)C	-0.858% and -2.52%	5.07% and 1.25%	2.17% and -0.227%	-7.23% and -8.06%	0.919% and -1%
CC1=CCC2C(C)(CO)CCCC2(C)C1CC12OC1C(O)C(CO)=CC2O (stereo not given)	0%	-2.74%	-6.4%	-12.6%	-0.091%
O=c1ccc2ccc(OCCCCN3CCN(c4cccc5sccc45)CC3)cc2[nH]1	-5.38%	-1.58%	-4.97%	-48.7%	-15.5%
CCC1=C(C)C(=O)C(C)CC12C(=O)CCC2C(=O)O (stereo not given)	-0.095%	-2.63%	0.856%	-14.6%	3.18%
CC1(C(=O)NCc2ccccc2)Cn2c(cc3ccccc32)C(=O)N1Cc1ccccc1 (stereo not given)	1.76%	2.28%	3.13%	-2.92%	0.419%
CNC(=O)c1cc(C2CC2)nc2onc(C3CCCN3C(=O)NC(C)c3ccccc3)c12 (stereo not given)	-4.43%	1.43%	-1.57%	-2.22%	-2.65%
COc1ccccc1Oc1ccc(N(Cc2cccnc2)S(=O)(=O)CC(F)(F)F)cc1	-0.265%	3.86%	6.9%	-22.3%	-6.8%
COCCN1C(=O)N(C)C(=O)C12CCN(CCCOc1ccc(F)cc1)C2 (stereo not given)	-3.66%	-5.56%	-0.829%	-7.4%	13%
